# Experimental data from PubChem BioAssay AID485313 (National Center for Advancing Translational Sciences (NCATS), 2010).
# In all, about 320,000 compounds went through this assay and about 7,600 (2.4%) were called active. Inconclusive results, whose numbers are uncertain, are shown with a selection of clear calls. Calls come from the whole dose curve; as a rule, active = well fitted activation curve with a large enough effect; inconclusive = small, poorly fitted or top-dose-only effect; inactive = no such curve, though single readings can be large or run the other way. No potency is given beside an inconclusive call; the fits are too rough.
# Experiment: qHTS Assay for NPC1 Promoter Activators; note: nearly all actives have a fitted effect of over 60% in size;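 for activation: reporter is driven by a mutant NPC1 promoter; % of control where 0% means no effect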
# Settings: Huh7 NPC1 promoter luciferase reporter, 24 h; series mostly up to 9.22 µM; activation: at the top concentration
# Outline: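 Readout is luciferase luminescence, reflecting NPC1 promoter activation in stably transfected Huh7 cells after 24 h compound exposure at 37 °C in reduced-serum medium with 10% FBS.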
# Potency is the fitted concentration of half-maximal effect; tags give direction and shape of the fitted curve.
Compound,Potency,activation
Cn1c(CNc2ccc(Cl)cc2)nc2ccccc21,active: 4.47 µM,–
Cc1cc(C(=O)COC(=O)c2ccc(O)cc2)c(C)n1Cc1ccco1,active: 3.55 µM,–
Nc1ccc(-c2nnn(Cc3ccccc3F)n2)cc1,"inconclusive [activator, single point]",–
CCN1CCN(C(=O)c2cc3cc([N+](=O)[O-])ccc3oc2=O)CC1,–,inactive: 1.03%
CCOC(=O)c1c(S(=O)(=O)NCCc2cccs2)c(C)n(C)c1C,–,inactive: -1.67%
CN(C(=O)c1ccccn1)c1nnc(-c2ccccn2)s1,active: 2.51 µM,–
Cn1c(SCC(=O)c2ccccc2)nnc1-c1cccc(N)c1,–,inactive: 25.4%
COc1cccc(N/C=C/c2onc(C)c2[N+](=O)[O-])c1,"inconclusive [activator, single point]",–
COc1ccc(S(=O)(=O)N2CCCCC2)cc1NC(=O)CCCNC(=O)c1ccc(Cl)cc1,–,inactive: -3.51%
O=C(Cc1ccccc1)Nc1ccc2c(c1)CCC2,"inconclusive [activator, single point]",–
O=C(Nc1ccon1)c1sc2cc(F)ccc2c1Cl,active: 3.16 µM,–
Cc1cc(C)c(OCC(=O)Nc2nnc(C3CC3)s2)c(C)c1,–,inactive: -2.18%
Cc1ccc(C2(C)NC(=O)N(CC(=O)Nc3ccc(-c4nc5ccc(C)cc5s4)cc3)C2=O)cc1 (stereo unspecified),active: 1.78 µM,–
O=C(NNc1nc2c(F)cccc2s1)c1cc(=O)c2ccccc2o1,"inconclusive [activator, single point]",–
CCOc1cccc(/C(O)=C2/C(=O)C(=O)N(CCN3CCOCC3)C2c2ccncc2)c1 (stereo unspecified),–,inactive: 0.25%
CCC(=O)c1ccc(OCc2ccccc2)c(OC)c1,"inconclusive [activator, partial curve]",–
Cc1ccc(NC(=O)N2CCCC2c2cccs2)cc1 (stereo unspecified),"inconclusive [activator, single point]",–
COc1cc(SC)ccc1C(=O)Nc1ccccn1,active: 0.794 µM,–
O=C(NCCc1ccc(F)cc1)Nc1ccc2c(c1)OCO2,"inconclusive [activator, partial curve]",–
CCc1ccccc1NC(=O)CN1CCN(C(=O)C2CCN(C(=O)/C=C/c3ccccc3)CC2)CC1,–,inactive: 16.8%
O=C(NC(=S)Nc1ccc2cn[nH]c2c1)c1ccccc1,active: 3.55 µM,–

Compound,Potency,activation
CC(C)(C)c1ccc(OCCC(=O)OCC(=O)NC2CCS(=O)(=O)C2)cc1 (stereo unspecified),–,inactive: -4.01%
COc1ccccc1/C=C/C(=O)NNC(=O)c1cccs1,–,inactive: 22.3%
O=C(Nc1ccc2c(c1)OCO2)C1CC(c2ccccc2Cl)=NO1 (stereo unspecified),"inconclusive [activator, partial curve]",–
CCOC(=O)c1[nH]c(C)c(C(=O)Nc2ccc(C)c(C)c2)c1C,"inconclusive [activator, full curve]",–
c1ccc(-n2ncc3c(NCCCN4CCOCC4)ncnc32)cc1,active: 3.16 µM,–
CC(=O)c1ccc(S(=O)(=O)N(C)CCCC(=O)N(C)Cc2c(F)cccc2Cl)cc1,–,inactive: 0.998%
CS(=O)(=O)c1ccc2nc(NC(=O)c3cccs3)sc2c1,active: 0.398 µM,–
O=C(Nc1nc(-c2ccco2)cs1)c1ccccc1,"inconclusive [activator, single point]",–
Cc1cc(NC(=O)c2ccc3c(c2)OCCO3)ccc1NC(=O)c1ccco1,"inconclusive [activator, partial curve]",–
COC(=O)C1CCN(C(=O)c2oc3c(Cl)cc(C)cc3c2C)CC1,active: 0.794 µM,–
COc1ccc(-c2csc(-c3cccnc3)n2)cc1C,"inconclusive [activator, partial curve]",–
CCCn1nnc(NC(=O)c2ccc3ccccc3c2)n1,"inconclusive [activator, partial curve]",–
CCc1ccccc1Nc1cc(C(=O)NCc2ccccn2)c2ccccc2n1,–,inactive: 0.804%
COc1ccc(C(=O)/C=C(\C)Nc2ccc(NC(C)=O)cc2)cc1,"inconclusive [activator, single point]",–
COc1ccc(/C=N/Nc2ccc(C(=O)O)cc2)cc1Br,"inconclusive [activator, full curve]",–
Fc1ccccc1COc1ccc(C(=S)N2CCCC2)cc1,"inconclusive [activator, partial curve]",–
COc1cccc(-c2ocnc2C(=O)Nc2ccc3c(c2)CCC3)c1,–,inactive: -1.28%
Nc1ccc(N=Nc2ccccc2Cl)c(N)n1,active: 3.16 µM,–
Cc1cc(NC(=O)c2ccc3c(c2)OCCO3)no1,"inconclusive [activator, partial curve, poor fit]",–
Cc1ccccc1NC(=O)/C(C#N)=C/c1ccc[nH]1,"inconclusive [activator, partial curve]",–
Cc1ccc(-c2noc(C3CCCN(C(=O)c4ccccc4)C3)n2)o1 (stereo unspecified),"inconclusive [activator, partial curve]",–

Compound,Potency,activation
COc1cc(/C=C2/C(=O)NN(c3cccc(Cl)c3)C2=O)cc(OC)c1O,–,inactive: 1.43%
CCOC(=O)C(C)N1C(=O)S/C(=C/c2ccc3c(c2)n(C)c(=O)n3C)C1=O (stereo unspecified),–,inactive: -5.68%
O=C(Nc1cccc(O)c1)c1c(O)c2ccccc2[nH]c1=O,"inconclusive [activator, single point]",–
COc1ccc2oc(=Nc3ccccc3)c(-c3nc4ccccc4[nH]3)cc2c1,"inconclusive [activator, single point]",–
c1ccc(-c2cc3ccccc3[nH]2)cc1,"inconclusive [activator, partial curve]",–
CCOC(=O)c1ccccc1NC(=O)c1cccc2c1C(=O)N(C1CCN(C(=O)OCC)CC1)C2,–,inactive: -1.01%
CCC(=O)Nc1cccc(NC(=O)c2cccc([N+](=O)[O-])c2C)c1,–,inactive: 8.46%
O=[N+]([O-])c1cc(/C=N/O)ccc1Oc1cccc(Cl)c1,–,inactive: -8.06%
CCCNC(=O)C1CC(=O)N(c2ccc(OCc3ccc(F)cc3)cc2)C1 (stereo unspecified),active: 0.631 µM,–
COc1ccc(C(=O)NCCc2nnc3ccc(SCC(=O)NCCc4ccc(OC)c(OC)c4)nn23)cc1,–,inactive: -0.681%
O=C(NC(=S)Nc1ccccn1)c1cncc(Br)c1,"inconclusive [activator, partial curve]",–
Cc1ccccc1OCCNC(=O)c1ccc2ccccc2n1,"inconclusive [activator, partial curve]",–
Cc1ccc(-c2cc(C(=O)N3CCCc4ccccc43)no2)cc1,"inconclusive [activator, partial curve]",–
Cc1csc(NC(=O)c2cc3c(s2)CCCC3)n1,active: 0.562 µM,–
O=C(Nc1ccncc1)c1ccc(-c2ccccc2)cc1,–,inactive: -9.6%
O=C(NCc1cccs1)c1noc2c1CCCCC2,"inconclusive [activator, single point]",–
Cc1ccnc(NC(=O)Nc2cccc(F)c2)n1,active: 2.24 µM,–
O=C(O)c1cc2c(ccc3ccccc32)o1,–,inactive: 1.1%
Cc1cccc(N(C(=O)CNC(=O)c2ccco2)C(C(=O)NCC2CCCO2)c2ccccc2)c1 (stereo unspecified),–,inactive: -2.27%
CN(c1ccc(C(=O)NCCSCc2ccccc2)cc1)S(=O)(=O)c1ccccc1,"inconclusive [activator, single point]",–
Cc1ccccc1CN1CCN(C(=O)c2cc(-c3ccncc3)nc3ccccc23)CC1,–,inactive: 4.46%

Compound,Potency,activation
O=C(NNC(=S)NC(=O)c1ccccc1)c1ccc(O)cc1,–,inactive: -3.29%
O=C(NNC1=NS(=O)(=O)c2ccccc21)c1ccc([N+](=O)[O-])cc1,"inconclusive [activator, partial curve]",–
OCCN1CCN(c2nc(-c3ccccc3O)nc3ccccc23)CC1,–,inactive: -3.83%
Cc1cc2nc(/C=C/c3cccnc3)[nH]c2cc1C,"inconclusive [activator, single point]",–
Cc1ccc(NC(=O)C2CC2c2ccccc2)c([N+](=O)[O-])c1 (stereo unspecified),"inconclusive [activator, partial curve]",–
Clc1ccc(-c2csc(N3CCOCC3)n2)cc1,"inconclusive [activator, single point]",–
COc1ccc(NC(=O)c2ccc(OC)cc2)cc1,active: 1.78 µM,–
Cc1csc(NC(=O)NCC2CCCC(CNC(=O)Nc3nc(C)cs3)C2)n1 (stereo unspecified),active: 3.55 µM,–
COC(=O)C1CCN(C(=O)COC(=O)Cc2c[nH]c3ccccc23)CC1,–,inactive: 5.57%
COc1ccc2c(c1)CC/C(=C/c1ccccn1)C2=O,"inconclusive [activator, single point]",–
Cc1ccccc1NC(=O)CSc1nc2ccccc2o1,"inconclusive [activator, partial curve]",–
COc1ccccc1N1CCN(/N=C/c2cccc(Cl)c2)CC1,active: 3.16 µM,–
Cc1nc(C(F)(F)F)ccc1C(=O)NCC(O)c1ccccc1 (stereo unspecified),"inconclusive [activator, single point]",–
Cc1c(NC(=S)NC(=O)c2sc3ccccc3c2Cl)cccc1C(=O)O,"inconclusive [activator, full curve]",–
Nc1c(C(=O)Nc2nc3ccccc3s2)sc2nc(-c3cccs3)ccc12,"inconclusive [activator, full curve]",–
Cc1ccc(NC(=O)ON=C2CCCC2)cc1,"inconclusive [activator, single point]",–
CC1CCN(C(=S)Nc2ccc(SC(F)F)cc2)CC1,"inconclusive [activator, partial curve]",–
NC(=O)c1ccccc1OCC(=O)Nc1ccc2c(c1)OCCO2,"inconclusive [activator, partial curve]",–
